Source: ChEMBL document CHEMBL1201862, “PubChem BioAssay data set” (2004)

system: NCI-H322M; test: growth of human tumour cells (NCI), 48 h

Row | SMILES | GI50
1 | O=C(O)C[S+]([O-])c1ccc2c3c(cccc13)C(=O)c1ccccc1-2 (centres undefined) | inactive: > 100 µM
2 | COc1cc(Nc2n[nH]c(NS(=O)(=O)c3cc(C)c(Cl)cc3S)n2)cc(OC)c1OC | inactive: > 100 µM
3 | Oc1cc(-c2ccccc2)c2ccccc2n1 | inactive: 48.5 µM
4 | Cc1ccc(SCN2CCCCC2)cc1.O=C(Cl)c1ccc([N+](=O)[O-])cc1 | inactive: 10.5 µM
5 | CN1CCN(Cc2nc3cccc4c3c([n+]2[O-])-c2ccccc2-4)CC1 | inactive: 7.64 µM
6 | C/C(=C\c1ccc2c(c1)OCO2)[N+](=O)[O-] | inactive: 13.8 µM
7 | COc1nc(C#CC2CCCCC2)nc(OC)n1 | inactive: 11.4 µM
8 | CC(C)[Si]1(C(C)C)OCC2OC(N3C(=O)NC(=O)C[C@@H]3C(O)c3ccccc3)CC2O[Si](C(C)C)(C(C)C)O1 (some centres undefined) | inactive: 14 µM
9 | COCC12CC(CC1=O)C1C2ON2c3ccccc3C(=O)C12c1ccccc1 (centres undefined) | inactive: > 100 µM
10 | COc1cccc(N2C(=O)c3c(c4[nH]c5ccccc5c4c4ccc(C(C)(C)C)cc34)C2=O)c1 | inactive: > 100 µM
11 | C=CC(=O)C#CC#CC/C=C\CCCCCCC | inactive: > 20.6 µM
12 | N=c1nc(N)nc(N)n1-c1ccc(S(N)(=O)=O)cc1 | inactive: > 100 µM
13 | CCOC(=O)CC1COc2ccc3c(c21)OCO3 (centres undefined) | inactive: > 100 µM
14 | CC(C)OP(=O)(OC(C)C)/C(Cl)=N/Nc1ccc([N+](=O)[O-])cc1 | inactive: 72.8 µM
15 | COC(=O)N/N=C(/c1nc2ccc([N+](=O)[O-])cc2nc1O)C(O)c1ccc(OC)c(OC)c1 (centres undefined) | inactive: > 100 µM
16 | O=C(/C=C/c1ccc(Cl)c(Cl)c1)c1ccc(F)cc1 | inactive: 47 µM
17 | N/C(=N\N=C\c1c[nH]c2ccccc12)Nc1ccccc1 | active: 0.453 µM
18 | C/C(=N\NC(=S)N1CCOCC1)c1nc2cccnc2[nH]1 | inactive: 36.8 µM
19 | [O-][S+](Nc1ccccc1)c1ccc(N2CCOCC2)cc1 (centres undefined) | inactive: > 100 µM
20 | O=C(O)c1nc2cc(C(F)(F)F)ccc2nc1Nc1ccc(Cl)c(Cl)c1 | inactive: 19.5 µM
21 | O=S(=O)(c1ccccc1)C1(C2(S(=O)(=O)c3ccccc3)CCN=N2)CCN=N1 (centres undefined) | inactive: > 100 µM
22 | CN(C)CC(C)(C)C(=O)/C=C/c1ccc(/C=C/C(=O)C(C)(C)CN(C)C)cc1 | inactive: 1.48 µM
23 | CCc1c(N=[N+]=[N-])c2ccccc2oc1=O | inactive: > 100 µM

Row | SMILES | GI50
24 | C[N+](C)(C)CC1CCCCCCCCCCC1=O (centres undefined) | inactive: > 100 µM
25 | COc1ccccc1C1C2=C(COC2=O)Oc2cc3c(cc21)OCO3 (centres undefined) | inactive: 4.43 µM
26 | COc1ccc(N2CN3OC(=O)N(c4ccc(OC)cc4)[C@@]3(c3ccccc3)C2)cc1 | inactive: 35.2 µM
27 | CCCC(=O)NC(NC1CCCCC1)(C(=O)OCC)C(F)(F)F (centres undefined) | inactive: > 100 µM
28 | O=c1c(=O)c2c(Br)sc(Br)c2c1=O | inactive: > 100 µM
29 | Cc1c(Cl)cccc1NC(=O)C(=O)C1C(=O)NC(=O)NC1=O | inactive: > 100 µM
30 | CC(=O)O[C@@H]1C(=O)N(c2ccccc2)[C@@H]1c1cc2ccccc2c2ccccc12 | inactive: 55 µM
31 | CC1=C(C(=O)Nc2cccc(C(F)(F)F)c2)C(c2ccccc2F)C(C(=O)Nc2cccc(C(F)(F)F)c2)=C(C)N1 | inactive: 2.35 µM
32 | O=c1c2cccnc2[nH]c2ccc3scnc3c12 | inactive: 9.14 µM
33 | CCCNC(=O)CCC(C)C1CCC2C3C(C[C@H](OC(C)=O)[C@]12C)[C@@]1(C)CCC2(C[C@H]1C[C@H]3OC(C)=O)OOC1(CC[C@]3(C)C4C[C@H](OC(C)=O)[C@]5(C)C(C(C)CCC(=O)NCCC)CCC5C4[C@H](OC(C)=O)C[C@@H]3C1)OO2 (some centres undefined) | inactive: > 100 µM
34 | C[C@@H](NC(=O)c1ccc(CNC(=O)/C=C/c2cccc(Oc3ccccc3)c2)cc1)c1ccccc1 | inactive: > 52.1 µM
35 | Cc1cc(Cl)cc2c1NC(=O)/C2=N\Nc1ccccc1[N+](=O)[O-] | inactive: > 100 µM
36 | Cc1n[n+](CC(=O)c2ccccc2)c2sc(N)nn12 | inactive: > 100 µM
37 | O=C(NN1C(=O)CSC1c1ccc(Cl)c(Cl)c1)c1ccncc1 (centres undefined) | inactive: 51.2 µM
38 | CSc1nc2c(nc(C)c(=O)n2C2OCC(OC(C)=O)C(OC(C)=O)C2OC(C)=O)c(=O)[nH]1 (centres undefined) | inactive: > 100 µM
39 | COc1cc(C2C(C(=O)O)=C(CO)Oc3cc4c(cc32)OCO4)cc(OC)c1O (centres undefined) | inactive: > 100 µM
40 | O=S(=O)(/N=C(\NO)Nc1ccc(Cl)cc1)c1cccc2nsnc12 | inactive: 29.2 µM
41 | NC(=O)C1N=NSC1NC(=O)c1ccc([N+](=O)[O-])cc1 (centres undefined) | inactive: 71 µM
42 | Nc1ncc(Sc2ccccc2C(=O)O)s1 | inactive: > 100 µM
43 | CC12C(=O)N(CCN)C(=O)C1C1c3ccccc3C2c2ccccc21 (centres undefined) | inactive: > 100 µM
44 | O=C(NN=C1CCCCC1)NN=C1CCCCC1 | inactive: > 100 µM
45 | CC1(CCCC2(C)CCNC2=O)OCCO1 (centres undefined) | inactive: > 10 µM
46 | O=c1[nH]nc(-c2ccccc2)n1/N=C/c1ccco1 | inactive: > 100 µM

Row | SMILES | GI50
47 | CC(C)NCCCNc1c2ccccc2nc2cccc([N+](=O)[O-])c12 | active: 0.0182 µM
48 | CC(=O)Nc1cc(N(CCOS(C)(=O)=O)CCOS(C)(=O)=O)ccc1N=O | inactive: > 100 µM
49 | C=CCN1C(=O)/C(=C/c2ccco2)N=C1SC1OC(COC(C)=O)C(OC(C)=O)C(OC(C)=O)C1OC(C)=O (centres undefined) | inactive: > 100 µM
50 | Cc1cc(C(C)C)cc(=O)c(O)c1 | inactive: > 100 µM
51 | C(/C=N/N=C1NCCN1)=N\N=C1NCCN1 | inactive: > 100 µM
52 | O=C1OC(c2ccco2)=N/C1=C\c1cccc([N+](=O)[O-])c1 | inactive: > 100 µM
53 | CCCCCCCCC(=O)NCCN(CCN)C(=O)CCCCCCCC | inactive: 19.6 µM
54 | Clc1cc(OCc2nn3c(Cc4ccccc4)nnc3s2)ccc1OCc1nn2c(Cc3ccccc3)nnc2s1 | inactive: 61.4 µM
55 | CC(=O)OCC(OC(C)=O)C(OC(C)=O)C(OC(C)=O)C(=O)CNn1c(-c2ccccc2Cl)nc2ccccc2c1=O (centres undefined) | inactive: > 100 µM
56 | [O-][Cl+3]([O-])([O-])O.c1ccc(/N=c2\nc(N3CCOCC3)ss2)cc1 | inactive: 52.7 µM
57 | COc1ccc(NC(C)=O)cc1N1C(=O)/C(=C\c2cccc(Oc3ccccc3)c2)S(=O)(=O)C1c1ccccc1 (centres undefined) | inactive: > 100 µM
58 | COc1ccc(Nc2nc(N)c(C(=O)c3ccco3)s2)cc1 | inactive: > 57.1 µM
59 | CC(=O)Nc1ccc(C(=O)NN2C(=O)CSC2c2ccc([N+](=O)[O-])cc2)cc1 (centres undefined) | inactive: > 100 µM
60 | O=C1c2ccccc2-c2ccc(/N=N/c3c(O)ccc4ccccc34)cc21 | inactive: > 100 µM
61 | CCN(CC)C(=S)SNCCc1ccc(S(N)(=O)=O)cc1 | inactive: > 52.7 µM
62 | S=c1oc(CCCCCCCCc2nn(CNc3ccc(Cl)cc3)c(=S)o2)nn1CNc1ccc(Cl)cc1 | inactive: > 100 µM
63 | COc1cc2c(cc1OC)C(=O)N(c1ccc(O)cc1)C2 | inactive: > 100 µM
64 | CCOC(=O)c1c(N2CCCC2)[nH]c(=O)c(C(c2ccc(N(C)C)cc2)c2c(O)c(C(=O)OCC)c(N3CCCC3)[nH]c2=O)c1O | inactive: > 100 µM
65 | Nc1nc(Nc2ccccc2)c2[nH]cnc2n1 | inactive: > 100 µM
66 | C=C[C@@H](C)[C@H](NS(=O)(=O)c1ccc(C)cc1)C(=O)OCC | inactive: 53.2 µM
67 | CCc1ccccc1NC(=O)C1=C(C)NC(C)=C(C(=O)Nc2c(CC)cccc2CC)C1c1ccc2c(c1)OCO2 (centres undefined) | inactive: 22.4 µM
68 | O=C(O)CCSC(=S)Nc1ccc([N+](=O)[O-])cc1 | inactive: > 90.6 µM
69 | N#C[C@H]1C(=O)C(c2nc3ccccc3[nH]2)S[C@H]1c1ccccc1 (some centres undefined) | inactive: 25.2 µM

Row | SMILES | GI50
70 | O=c1n(CCCCn2c(=O)n(CC3CS3)c3ccccc32)c2ccccc2n1CC1CS1 (centres undefined) | inactive: 40.8 µM
71 | O=C(c1ccccc1)c1nc2ccc(Cl)cc2cc1C(Br)Br | active: 0.305 µM
72 | OC(CC1CCCCN1)c1ccc2c(c1)oc1ccccc12 (centres undefined) | inactive: > 100 µM
73 | O=S(=O)(Nc1nc2ccccc2nc1Nc1ccc2ccccc2c1)c1ccccc1 | inactive: 17.7 µM
74 | Cc1cc2c(-c3ccccc3)cc(=O)[nH]c2cc1N | inactive: > 100 µM
75 | O=C1C(Br)=CC2(C=C1Br)CCNC1=C2C(=O)c2ncccc2C1=O | inactive: 1.49 µM
76 | Cc1c(N)nc(C(CC(N)=O)NCC(N)C(N)=O)nc1C(=O)NC(C(=O)NC(C)C(O)C(C)C(=O)NC(C(=O)NCCc1nc(-c2nc(C(=O)NCCCNC(C)c3ccccc3)cs2)cs1)C(C)O)C(OC1OC(CO)C(O)C(O)C1OC1OC(CO)C(O)C(OC(N)=O)C1O)c1c[nH]cn1 (centres undefined) | inactive: 41 µM
77 | Cc1cc(S(=O)(=O)Nc2nc(N)n[nH]2)c(Cl)cc1Cl | inactive: > 10 µM
78 | COc1ccccc1/N=N/c1c(O)c(S(=O)(=O)O)cc2cc(S(=O)(=O)O)ccc12 | inactive: > 100 µM
79 | NC(N)=NCCC(O)(P(=O)(O)O)P(=O)(O)O | inactive: > 100 µM
80 | C=C(C)CCC(O)[C@](C)(O)[C@H]1[C@H](O)C[C@@]2(C)[C@@H]3CCc4c(cc(OC5OC(CO)C(O)C(O)C5O)c(O)c4C)C3(C)C(=O)C[C@]12C (some centres undefined) | inactive: > 100 µM
81 | CC(=O)Nc1ccc(S(=O)(=O)Nc2cnc3ccccc3n2)cc1 | inactive: > 100 µM
82 | C[C@@H]1CC(=O)[C@@]2(C)[C@](O)(CCC3O[C@]32C)[C@@]12CC(c1ccoc1)OC2=O (some centres undefined) | inactive: > 100 µM
83 | C[C@]12CCC[C@H](OC=O)C1(O)C[C@H](C(=O)O)CC2 (some centres undefined) | inactive: > 100 µM
84 | COCC([C@@H](O)C(O)C(=O)NCC[C@@H](C)c1nc(/C=C/CC2OC3(C[C@H](O)C2C)OC(C(C[C@H](O)C(C)[C@H](O)C(C)/C=C(C)/C(C)=C/C=C/C(C)=C/C#N)OC)[C@@H](OP(=O)(O)O)C3(C)C)co1)N(C)C (some centres undefined) | active: 0.000198 µM
85 | O=C(O)c1ccc2nc(-c3ccccn3)c(-c3ccccn3)nc2c1 | inactive: > 100 µM
86 | O=C(O)C(Cc1ccccc1)N1C(=O)c2ccccc2C1=O (centres undefined) | inactive: > 100 µM
87 | COC(=O)[C@H](Cc1c[nH]c2ccccc12)NP(=O)(OCCC#N)OCC1OC(n2cc(C)c(=O)[nH]c2=O)CC1N=[N+]=[N-] (some centres undefined) | inactive: > 100 µM
88 | NC(C(=O)O)c1ccc(C(=O)O)cc1 (centres undefined) | inactive: > 100 µM
89 | CN(C)CCNc1ccc(CO)c2oc3ccc(O)cc3c(=O)c12 | inactive: 13.3 µM

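Cells were grown in 96-well plates and exposed to each compound for 48 hours at five concentrations; endpoints were interpolated linearly between bracketing concentrations, or set to the highest concentration if not reached. GI50 = concentration required for 50% inhibition of growth.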 Activity calls are given as the source filed them. Cut-off read from the data, not from the text of the source: active = GI50 up to about 1.1 µM and inactive = higher.
